According to PubChem BioAssay AID485281 (National Center for Advancing Translational Sciences (NCATS), 2010):
The campaign covered roughly 350,000 compounds. About 260 (0.074%) were called active. This list was built around the results that the source calls inconclusive (neither active nor inactive); the mix of calls is not that of the screen. Calls come from the whole dose curve; as a rule, active = well fitted inhibition curve with a large enough effect; inconclusive = small, poorly fitted or top-dose-only effect; inactive = no such curve, though single readings can be large or run the other way. Potencies of inconclusive entries are doubtful fits and often do not repeat.

Each compound was assayed against Ferritin light chain (Equus caballus) (UniProt P02791) (assay: qHTS Assay for Identification of Novel General Anesthetics). Conditions: apoferritin/1-aminoanthracene competitive binding, fluorescence; activity change, negative = displacement: at 77.5 µM (top of the series).
Procedure, shortened: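 Read-out: endpoint 1-AMA fluorescence, excitation 380 nm and emission 535 nm, after compounds sit 10 min at room temperature with 10 uM horse-spleen apoferritin in 50% saturated 1-AMA/PBS. Values come from four-parameter Hill fits.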
% is set by controls: 0 for no effect and ±100 for the full control effect; potency is the fitted concentration of half-maximal effect; tags give direction and shape of the fitted curve.
Note: nearly all actives have a fitted effect of over 20% in size.

UniProt P02791, sequence (P02791 whole entry, looked up): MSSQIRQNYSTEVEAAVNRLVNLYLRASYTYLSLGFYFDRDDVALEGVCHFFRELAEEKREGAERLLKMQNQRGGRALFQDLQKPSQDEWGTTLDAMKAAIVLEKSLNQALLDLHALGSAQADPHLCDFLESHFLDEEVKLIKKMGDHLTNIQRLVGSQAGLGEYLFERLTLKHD

Potency, inactive:
CCN(CC)S(=O)(=O)c1ccc(C(=O)OCC(=O)Nc2ccc(-c3nc4ccc(C)cc4s3)cc2)cc1
CCN(CC)CCN(C(=O)CCS(=O)(=O)c1ccccc1)c1nc2c(C)cc(C)cc2s1
CCN(c1ccccc1)C(CNS(=O)(=O)c1ccccc1)c1ccccc1 (stereo not given)
COc1ccc(CCNC(=O)Cc2c(C)c3c(cc(C)c4c(C)coc43)oc2=O)cc1OC
O=C(c1ccc2c(c1)N(Cc1ccccc1)C(=O)c1ccccc1S2(=O)=O)N1CCN(c2ccccc2)CC1
Cc1cc(=O)oc2cc(OCC(=O)NCc3ccccn3)ccc12
CCOc1cccc(C2Nc3ccccc3-c3cc(C)nn32)c1O (stereo not given)
CCc1ccccc1NC(=O)Cn1ccn(-c2cc(C)cc(C)c2)c(=O)c1=O
CC(C)c1cc(/C=C(\C#N)C(=O)NCCCc2ccccc2)cc(C(C)C)c1O
Fc1ccc(-c2nc3nc4ccccc4nc3n2Cc2ccco2)cc1
Cn1nc(C(F)(F)F)c2cc(C(=O)Nc3ccc(F)c(Cl)c3)sc21
COc1ccc(C(C(=O)NC2CCCC2)N(C(=O)c2snc(C(N)=O)c2N)c2cc(C)ccc2OC)cc1OC (stereo not given)
Cc1cc(NC(=O)CN2CCN(C/C=C/c3ccccc3)CC2)c([N+](=O)[O-])cc1C
CCOC(=O)c1c(-c2ccc(C)o2)csc1NC(=S)NC(=O)c1cccs1
CCOC(=O)C1=C(N)Oc2cc(O)ccc2C1c1cccc(Cl)c1 (stereo not given)

Potency, inconclusive:
C=C(C)COc1ccc(-c2[nH]ncc2-c2ccccc2OC)c(O)c1 35.5 µM [inhibitor, partial curve]
CCC(=O)N1CCc2cc(S(=O)(=O)NCCC(=O)N3CCc4ccccc4C3)ccc21 22.4 µM [inhibitor, partial curve]
COc1ccccc1CNC(=O)c1ccc2nc(N3CCOCC3)sc2c1 56.2 µM [inhibitor, single point]
COc1ccc(C(=O)CSc2nc3ccc([N+](=O)[O-])cc3[nH]2)cc1 35.5 µM [inhibitor, single point]
CCC(CC)NC(=O)COC(=O)c1cc(Br)ccc1Cl 31.6 µM [inhibitor, partial curve, poor fit]
CS(=O)(=O)N(CC(=O)Nc1ccc(Cl)c(Cl)c1)C1CCCCC1 39.8 µM [inhibitor, single point]
COc1cc(C(=O)CC2(O)C(=O)N(Cc3ccccc3Cl)c3ccccc32)cc(OC)c1OC (stereo not given) 15.8 µM [inhibitor, partial curve]
CCCN(CCC)S(=O)(=O)c1ccc(C(=O)NCc2ccco2)cc1 25.1 µM [inhibitor, single point]
Clc1ccc(CNc2ccccc2NCc2ccc(Cl)nc2)cn1 17.8 µM [inhibitor, partial curve]
O=C1/C(=C/c2ccccc2)Nc2ccccc21 31.6 µM [inhibitor, single point]
Cc1cc(C(=O)NCCC2=CCCCC2)ccc1[N+](=O)[O-] 20 µM [inhibitor, partial curve]
O=C(Cn1cnc([N+](=O)[O-])n1)N/N=C/c1cccc2ccccc12 25.1 µM [inhibitor, partial curve]
CC(=O)Nc1ccc(OCc2cnc(Cl)s2)cc1 12.6 µM [inhibitor, partial curve]
COc1ccc(C(NC(=O)/C=C\c2ccco2)c2ccc(OC)c(OC)c2)cc1 (stereo not given) 31.6 µM [inhibitor, partial curve, poor fit]
Cc1ccc(S(=O)(=O)N(C)CC(=O)O/N=C(\N)c2cccc([N+](=O)[O-])c2)cc1 44.7 µM [inhibitor, partial curve]
CCOc1ccccc1N1CCN(C(=O)c2cc3c(s2)CCC3)CC1 28.2 µM [inhibitor, partial curve]
Cc1csc(NC(=O)c2cc3c(s2)CCCCC3)n1 44.7 µM [inhibitor, partial curve]
CSc1nsc(SCC(=O)Nc2ccc(C(C)=O)cc2)n1 39.8 µM [inhibitor, partial curve]
O=C1CCCc2ccccc2N1Cc1cccc(F)c1 25.1 µM [inhibitor, partial curve]
O=C(CNC(=O)C1CCCCC1)Nc1ccc(F)c(Cl)c1 28.2 µM [inhibitor, single point]
O=C(NCc1ccc2c(c1)OCO2)c1ccc2c(c1)OCCO2 35.5 µM [inhibitor, partial curve]
CCCC(=O)NC(Nc1cc(C(F)(F)F)ccc1Cl)C(Cl)(Cl)Cl (stereo not given) 12.6 µM [inhibitor, partial curve]
CCC(Sc1nc2ccccc2c2nc(CCn3cncc3C)nn12)C(=O)Nc1cccc(OC)c1 (stereo not given) 39.8 µM [inhibitor, partial curve]
CC1(C)CC(=O)C2=C(C1)NC1=C(C(=O)c3ccccc31)C2c1ccccc1 (stereo not given) 39.8 µM [inhibitor, partial curve]
CN(C)C(=O)[C@]1(C)C[C@H]1[C@H](NC(=O)CNC(=O)[C@@H]1CCCN1C(=O)[C@]1(C)C[C@H]1[C@H](NC(=O)OCc1ccccc1)c1ccccc1)c1ccccc1 28.2 µM [inhibitor, partial curve]
CC1(C)Cc2c(cnn2-c2ccccc2)C(=O)/C1=N\NC(=O)c1ccccc1O 14.1 µM [inhibitor, partial curve]
C=CCn1c2ccccc2c2nnc(SC(CC)C(=O)Nc3nc(C)c(C(=O)OCC)s3)nc21 (stereo not given) 3.16 µM [inhibitor, partial curve]
Cc1nonc1C1CCCN1C(=O)c1cc(COc2ccc(F)cc2F)on1 (stereo not given) 31.6 µM [inhibitor, partial curve]
O=C(CC1(C(F)(F)F)OCCO1)Nc1ccc2c(c1)OCO2 20 µM [inhibitor, partial curve]
CCc1ccccc1NC(=O)c1nnn(CC(=O)Nc2cccc(C)c2)c1N 3.16 µM [inhibitor, full curve]
CCOc1cc(/C=N/NC(=O)CSc2nncn2C)ccc1OC(=O)c1ccc(Cl)cc1 25.1 µM [inhibitor, partial curve]
Cc1cc(C)nc(Nc2cccc(C(F)(F)F)c2)n1 28.2 µM [inhibitor, single point]
COc1ccc(OCc2cc(C(=O)N(C)Cc3nccn3C)no2)c2ccccc12 35.5 µM [inhibitor, single point]
Cc1cccc(/C=N/NC(=O)c2cc(-c3cccnc3)nc3ccccc23)c1 7.94 µM [inhibitor, partial curve]
O=C1NC2(CCCCC2)C(=O)N1CC(=O)N(Cc1ccccc1)c1ccccc1 28.2 µM [inhibitor, single point]
O=C(CSc1nnc(-c2cccs2)n1Cc1ccco1)Nc1ccc2c(c1)OCO2 20 µM [inhibitor, partial curve]
O=S(=O)(NCCc1nnc2ccc(SCc3ccc(C(F)(F)F)cc3)nn12)c1ccccc1 50.1 µM [inhibitor, single point]
O=C(NC1=NCCS1)NC12CC3CC(CC(C3)C1)C2 28.2 µM [inhibitor, single point]
CCOC(=O)CCC(=O)OCC(=O)NC(C)C1CC2CCC1C2 (stereo not given) 17.8 µM [inhibitor, partial curve]
CC1=CC(C)(C)N(C(=O)C(C)N2C(=O)c3ccccc3C2=O)c2c(C)cc(C)cc21 (stereo not given) 35.5 µM [inhibitor, partial curve]
Cc1ccc(C(=O)COC(=O)CNC(=O)c2cccs2)cc1 20 µM [inhibitor, partial curve]
CCOc1ccc2c(c1)-c1c(ssc1=S)C(C)(C)N2C 39.8 µM [inhibitor, partial curve]
CCN(C(=O)COC(=O)/C=C/c1ccccc1)C1CCCCC1 31.6 µM [inhibitor, partial curve]
O=S(=O)(c1cc(F)ccc1F)N1CCC2(CC1)OCCO2 15.8 µM [inhibitor, partial curve]
O=C1CSC(c2c(F)cccc2Cl)N1c1cccc(F)c1 (stereo not given) 50.1 µM [inhibitor, single point]
N#CC(c1ccc(O)cc1)c1ncc(C(F)(F)F)cc1Cl (stereo not given) 25.1 µM [inhibitor, partial curve]
O=C(NC(=S)Nc1ccc2c(c1)OCCO2)c1ccccc1F 31.6 µM [inhibitor, single point]
COc1ccccc1-c1ccc(=O)n(CC(=O)NC2CCc3ccccc32)n1 (stereo not given) 14.1 µM [inhibitor, partial curve]
COc1ccc(-n2ccc3ccccc32)cc1 35.5 µM [inhibitor, single point]

Activity change, negative = displacement, inactive:
CC(C)=CCC/C(C)=C/CO/N=C1/[C@H]2O[C@@H]2[C@@H](O)[C@H]2[C@H]1CCn1c(=O)n(-c3ccccc3)c(=O)n12 2.98% [at 15.3 µM]
